According to PubChem BioAssay AID493208 (National Center for Advancing Translational Sciences (NCATS), 2011):
The campaign covered roughly 44,000 compounds. About 340 (0.77%) were called active. Inconclusive results (about 5%) are left out. The call rests on the fitted dose curve; in most records, active means well fitted inhibition curve with a large enough effect; inconclusive means small, poorly fitted or top-dose-only effect; inactive means flat fitted curve, though single readings scatter. The list shows a part of the results.

experiment: Acumen qHTS Assay for Inhibitors of the mTORC1 Signaling Pathway in MEF (Tsc2-/-, p53-/-) Cells: Sytravon; details: phospho-rpS6 immunofluorescence/PI, 24 h; series mostly up to 38.3 µM; activity change, negative = inhibition: at the top concentration;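 further: plate controls were DMSO for no effect and rapamycin for full effect; nearly all actives have a fitted effect of over 50% in size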
How it was run: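 Immunofluorescence of rpS6 phosphorylation in Tsc2-/-, p53-/- MEFs after 24 h compound exposure, normalized to propidium iodide signal. Activity is expressed as % positive cells, thresholded with 7.5 nM rapamycin.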

Activity change, negative = inhibition, inactive:
CC1CCN(c2nc(-c3ccc(C(C)(C)C)cc3)nc3ccccc23)CC1 4.06%
O=C(CSc1nc2ccsc2c(=O)n1-c1ccc(Cl)cc1)NCc1ccc(Cl)cc1 -2.95%
CCOc1ccc(NC(=O)c2cc3cc(C)ccc3n2C)cc1 0.102%
CCC(=O)N1CCc2cc(S(=O)(=O)NCCC(=O)Nc3ccc(CC)cc3)ccc21 0.657%
COc1ccccc1NC(=O)CSc1oc(-c2ccco2)nc1S(=O)(=O)c1ccc(C)cc1 -13.3%
CCOc1ccc(NC(=O)c2oc3ccccc3c2NC(=O)C(C)(C)C)cc1 -5.77%
O=C(CC1N=C2c3ccccc3N=C(SCC(=O)Nc3ccc(F)cc3)N2C1=O)NCc1ccco1 (configuration not stated) 3.7%
CCOc1ccc2nc(N3CCCC(C(=O)Nc4ccc(OC)cc4)C3)sc2c1 (configuration not stated) -9.87%
COc1ccc(CCNC(=O)c2c(O)nc3ccccn3c2=O)cc1OC 1.57%
COc1cc(Nc2ncc3c(n2)CCN(Cc2ccc(OC(C)C)c(OC)c2)C3)cc(OC)c1 0%
Cc1ccc(C(=O)Nc2nnc(S(=O)(=O)N(C)Cc3ccc(Cl)cc3)s2)cc1 0.287%
CCc1nn2c(=O)cc(COC(=O)c3ccc(NC(=O)COc4ccccc4C)cc3)nc2s1 0%
COc1ccc(NC(=O)c2csnn2)cc1Cl -8.04%
O=C(c1noc2c1CCCCC2)N1CCN(c2cccc(Cl)c2)CC1 1.82%
O=C(Cn1ncc2c3ccccc3n(Cc3ccccc3F)c2c1=O)N1CCCCCC1 -0.751%
CCN1CCN(c2nnc(-n3cccc3C(=O)NCc3ccccc3OC)s2)CC1 5.68%
COc1ccc(NC(=O)C2CCN(C3=NS(=O)(=O)C(c4ccc(C)c(C)c4)=C3C)CC2)c(OC)c1 -19.4%
COc1cccc(CNC(=O)C2CCN(S(=O)(=O)c3c(C)noc3/C=C/c3cccs3)CC2)c1 3.32%
O=C(NCCc1csc(-c2cccc(F)c2)n1)C(=O)Nc1cc(F)ccc1F 0.473%
Cc1ccc(C)c(NC(=O)Cc2coc3cc(C)cc(C)c23)c1 -7.72%
O=C(c1cc2ccc3cccnc3c2[nH]1)N1CCCCC1 3.74%
COc1ccc(C)cc1NS(=O)(=O)c1cnc(N)nc1 0%
CCOC(=O)c1sc2ncn(CC(=O)Nc3cc(Cl)ccc3C)c(=O)c2c1C -5.84%
CCOC(=O)c1cc2c(=O)n3ccccc3nc2n(CC2CCCO2)c1=NC(=O)c1ccccc1Br (configuration not stated) 0.0172%
CC(=O)Nc1cccc(NC(=O)CSc2nccn2Cc2ccc3c(c2)OCO3)c1 -0.181%
CC(=O)c1ccc(N2CCN(C(=O)c3cc(S(=O)(=O)N4CCCCCC4)cn3C)CC2)cc1 -10.1%
Cc1cccc(NC(=O)CSc2ccc(-c3sc(-c4ccccc4)nc3C)nn2)c1C 0.145%
Cc1cc(C(=O)Nc2c(C)cccc2C)n(-c2ccccc2)n1 -5.04%
O=C(OCc1cc(=O)n2nc(-c3cccs3)sc2n1)c1cccc(F)c1 -6.47%
COCCCNC(=O)c1ccc(Cn2c(SCc3ccc(F)cc3)nc3cccnc32)cc1 -6.5%
Cc1ccc(S(=O)(=O)c2nnn3c2nc(NC2CCCCCC2)c2sccc23)cc1C -8.96%
CC(C)c1nn2c(=O)cc(COC(=O)C3CCCCC3)nc2s1 -3.65%
CCCOc1cccc(C2c3c(oc4ccc(F)cc4c3=O)C(=O)N2CCCN2CCOCC2)c1 (configuration not stated) -9.31%
Cc1ccc(CN(Cc2ccco2)C(=O)c2ccccc2Br)o1 -8.64%
CCCOc1ccc(-c2nonc2NC(=O)c2ccco2)cc1OCCC -8.04%
CC1CCN(C(=O)c2cc3c(=O)n(C)c4cc(Cl)ccc4c3s2)CC1 -8.31%
Cc1nc(-c2ccc(S(=O)(=O)N3CCN(c4cccc(C(F)(F)F)c4)CC3)cc2)co1 -1.27%
Cc1cc(Br)cc(C)c1NC(=O)c1sc2ncn(Cc3cccc(F)c3)c(=O)c2c1C -6.56%
CCNC(=O)c1ccc(C)c(-n2c(C)nc3cccnc32)c1 -8.81%
Cc1ccc(NC(=O)Cn2c(=O)c3ccc(Cl)cc3n3nncc23)cc1 -16.4%
COc1cccc(-c2csc(-c3c(N)c(C(=O)c4ccc5c(c4)OCO5)n4ccccc34)n2)c1 0.158%
CCOc1ccc(C2C(C(=O)Nc3ccccc3)=C(C)Nc3nc(-c4ccccc4)nn32)cc1OC (configuration not stated) -2.14%
O=C(Cn1c(-c2cccs2)cc2ccccc21)N1CCN(c2ccc(Cl)cc2)CC1 -1.61%
COc1ccc(-c2cn3c(n2)sc2cc(C(=O)NCCC4=CCCCC4)ccc23)cc1 4.67%
COc1ccc(OC)c(NC(=O)C(C)n2c(=O)cc(C)c3c(C)nn(-c4ccccc4)c32)c1 (configuration not stated) 1.01%
O=c1c2cnn(-c3ccc(F)cc3)c2ncn1Cc1ccccc1Cl 1.28%
Cc1cc(C)n(CCc2nc3c4ccccc4nc(SCc4ccc(F)cc4)n3n2)n1 0.942%
Cc1ccc(CNC(=O)c2c[nH]c3ccc(S(=O)(=O)N4CCOCC4)cc3c2=O)cc1 -10.9%
Cc1ccc(Cc2cnc(NC(=O)c3ccc4c(c3)CC(c3ccccc3)OC4=O)s2)cc1 (configuration not stated) -3.49%
O=C(NC1CC(=O)N(c2ccc(F)cc2)C1)C1CCCC1 (configuration not stated) 3.41%
Cc1c(C(=O)Nc2ccc(F)cc2F)oc2c1-c1nn(Cc3c(F)cccc3Cl)cc1CC2 -0.919%
CC(=O)c1ccc(S(=O)(=O)Nc2ccc(-c3cn4c(C)csc4n3)cc2)cc1 4.25%
COc1ccc(C)cc1NC(c1nnc(-c2ccccc2)o1)c1ccc(F)cc1Cl (configuration not stated) 0.577%
CCOC(=O)c1c(NC(=O)c2ccc(C)cc2)sc2c1CCCCC2 1.97%
N#Cc1ccccc1NC(=O)CSc1nc(-c2ccccc2)cc(C(F)(F)F)c1C#N -10.1%
CCc1ccc(N2CC(c3nnc(NC(=O)c4ccco4)s3)CC2=O)cc1 (configuration not stated) -4.13%
COc1cc(Cl)c(C)cc1NC(=O)c1cc(S(=O)(=O)N2CCCC2)ccc1F 8.68%
Cc1ccc(Nc2nc(-c3ccccc3)nc3ccccc23)cc1 0.808%
Cc1ccc(-n2cnc3cc(C(=O)NCCC4=CCCCC4)ccc32)c(C)c1 5.09%
CCOC(=O)c1c(NC(=O)/C(C#N)=C/c2ccc(OC)cc2)sc2c1CCC2 6.44%
COc1ccc(C(=O)N2CC(=O)Nc3ccc(Br)cc3C2c2ccc(F)cc2)cc1OC (configuration not stated) 0.505%
Cc1cccc(C)c1OCC(=O)N(Cc1ccccc1F)C1CCS(=O)(=O)C1 (configuration not stated) -16.3%
CCc1ccc(NC(=O)c2sc(-n3nc(C)c(CCC(C)C)c3C)nc2C)cc1 -6.12%
COc1ccc(NC(=O)c2ccc3oc(=O)c(S(=O)(=O)c4ccc(F)cc4)cc3c2)cc1OC 1.24%
CCOc1ccccc1NC(=O)c1ccc2c(c1)CCN2S(C)(=O)=O -3.38%
COc1cc(C2c3c(-c4cc(C)ccc4O)n[nH]c3C(=O)N2Cc2cccnc2)cc(OC)c1OC (configuration not stated) -0.431%
CCn1cc2nc(SCC(=O)Nc3cc(OC)ccc3OC)n(Cc3ccc(Cl)cc3)c(=O)c2n1 -17.5%
O=C(Nc1ccc(OC(F)(F)F)cc1)c1cc2c(=O)n3ccccc3nc2s1 -8.52%
CCS(=O)(=O)N1CCc2cc(C(=O)Nc3cc([N+](=O)[O-])ccc3C)ccc21 -2.36%
O=C(CCn1c(=O)c2cccn2c2cccnc21)N1CCN(c2ccc(F)cc2)CC1 0.316%
COc1ccccc1CCNC(=O)Cn1ccc2cc(S(=O)(=O)N3CCCCC3)ccc21 -17.5%
CCCC(=O)Nc1nnc(SCc2cc(=O)n3ccccc3n2)s1 0%
COc1ccc(C(=O)Nc2ccc3nc(SCC(=O)N4CCCC4)sc3c2)cc1 -10.3%
O=C(NC1CCCCC1)c1ccc2c(c1)N(Cc1ccccc1F)C(=O)c1ccccc1S2 -0.905%
Cn1c(=O)c(=O)n(C)c2cc(S(=O)(=O)N3CCCC3C(=O)Nc3cccc(F)c3)ccc21 (configuration not stated) 2.6%
CCN(CCN(C)C)C(=O)Cn1ncc2c([nH]c3ccc(C)cc32)c1=O 1.95%
Cc1ccc(CNC(=O)C2CCN(Cc3nc(-c4ccccc4C)oc3C)CC2)cc1 1.43%
Cc1ccn2c(Nc3ccccc3C)c(-c3ccncc3)nc2c1 4.77%
Cc1cccc(NC(=O)CSc2nnc(CNC(=O)c3cccc(C)c3)n2-c2ccccc2)c1 -14.2%
CCCCn1c(CN2CCN(c3ccc(OC)cc3)CC2)nc2c1c(=O)[nH]c(=O)n2C -3.11%
COc1ccc(-c2noc(CN(C(=O)c3ccccc3Cl)C(C)C)n2)cc1 -11%
Cc1ccccc1Cn1c(-c2cccs2)nc2ccccc21 -0.771%
Cc1ccc2nc(CSc3nnc(NC(=O)CC(C)C)s3)cc(=O)n2c1 -12.9%
Cc1ccc(Cn2c(CN3CCC(C(=O)NCc4cccnc4)CC3)cc3ccccc32)cc1 -0.121%
CCOc1ccc(CNC(=O)CCC(=O)N2Cc3ccccc3Oc3ncccc32)cc1 -7.17%
COc1ccc(OC)c(NC(=O)CSc2c3c(nc4cc(Cl)ccc24)CCCC3)c1 3.21%
NC(=O)CSc1nc2cc3c(cc2c(=O)n1CCCCCC(=O)NCc1ccc2c(c1)OCO2)OCO3 -9.21%
CC(=O)c1cccc(NC(=O)CCS(=O)(=O)c2ccc3c(c2)n(C)c(=O)c(=O)n3C)c1 -12.7%
O=C(Nc1ccccc1C(F)(F)F)C1(S(=O)(=O)c2ccc(Cl)cc2)CC1 3.59%
CN1CC(=O)N(CC(=O)Nc2cccc(C#N)c2)c2ccccc2C1=O 5.53%
COc1ccc(OC)c(NC(=O)C2CCCN(S(=O)(=O)c3ccc4[nH]c(=O)ccc4c3)C2)c1 (configuration not stated) -5.64%
COc1ccc(-c2cn3c(n2)sc2cc(C(=O)NCC(C)c4ccccc4)ccc23)cc1 (configuration not stated) -3.96%
Cc1ccc(CCNC(=O)c2cnc3c(C)cccn3c2=O)cc1 0.762%
Cc1c(Cl)cccc1NC(=O)Nc1nnc(N(C)C2CCCCC2)s1 -6.49%
CCCCCCNC(=O)CCc1c(C)nc2nc(-c3cc(OC)cc(OC)c3)nn2c1C -3.12%
Cc1ccc(C(=O)c2cn(Cc3cc(C)ccc3C)c3nc(C)ccc3c2=O)cc1 -29.6%
CCOCCCNC(=O)C(NC(=O)C1CCC(C)CC1)C(C)C (configuration not stated) 1.21%
